# Some of the results follow. At the low end of the ranking, values are background and their order means little.
# Biological target: SIX1 homeodomain (reference allele) (UniProt Q15475)
# Assay: universal protein binding microarray
# Settings: Universal all-10-mer PBM (8x60K, AMADID 030236), 300 nM GST-tagged protein, Alexa Fluor 488 anti-GST; buffer, salt, pH and temperature not stated; high values mean tight binding; most listed sequences are background and not binding sites; double strand, one strand shown
row,Sequence,binding signal [E-score]
1,CAACCCAA,0.00694
2,AATGCTGT,-0.208
3,ATGGACGG,0.0653
4,CGAAAGGA,-0.0136
5,GTTCCGAA,-0.154
6,GCTCCAAA,-0.303
7,AAATATAA,-0.132
8,CGATCCCG,0.332
9,CAGCTATG,-0.0902
10,GTAAATCA,-0.138
11,CTGGTATC,0.45
12,GCGAAAGA,-0.231
13,AAAGGAGT,-0.158
14,CGTGGGAC,-0.126
15,AAGAACGC,-0.138
16,TGAACCAA,-0.0993
17,GGCAGTCA,-0.161
18,CTCCCCCC,-0.131
19,GGATGCCA,0.102
20,GTTCCGTA,-0.0109
21,GGCGCTAC,-0.268
22,AAGGTAGC,-0.163
23,AGCTTACC,-0.0453
24,ATCCGCGA,0.259
25,ACACCTCG,0.301

row,Sequence,binding signal [E-score]
1,CTAATTTA,-0.16
2,AGAAAATG,-0.196
3,ACACACCC,0.0977
4,CCCAGTAC,-0.041
5,ACCTGGTA,-0.0609
6,ATTACAAA,-0.0962
7,TCGACGAA,-0.141
8,AATTGCAA,-0.25
9,ACCTGCAC,-0.13
10,CAATCCTA,0.0477
11,AATCTCGG,0.0417
12,CGGTAGAC,-0.0586
13,CTATACAC,0.255
14,GGCCACCA,-0.123
15,ATGCATTG,-0.0834
16,GATAGGAA,0.114
17,AAAAGCCC,-0.315
18,CGGAAAAC,-0.227
19,GGCTGAAA,-0.0765
20,GAAGAGGA,-0.211
21,ACATATTC,0.0898
22,AGGGAAGG,-0.0483
23,AAACTTCT,-0.258
24,AGCTCACC,0.00873
25,CAGAGAGC,-0.142

row,Sequence,binding signal [E-score]
1,AGCGAGTA,0.0653
2,CAGCCGGG,-0.0367
3,AAGGTAAT,-0.0709
4,GGTATAAA,0.286
5,AAGTCTCT,-0.333
6,ATTTTCTA,-0.15
7,AGTTGGCA,-0.225
8,TCCTCTCA,0.0399
9,CTCTTGCA,-0.0132
10,AACGGATT,0.204
11,CACGCTGA,-0.047
12,ACCTTAAT,0.152
13,ATACTAAG,0.209
14,CAAGCTTG,-0.359
15,AGAACAAT,0.0539
16,CCGGGTAA,0.113
17,AACATCTA,-0.142
18,GTCGTCAA,-0.044
19,AAGCTGGC,-0.171
20,AAAGAGAC,0.0298
21,CCATTGCG,-0.00545
22,AGTCTGCG,-0.187
23,AGGGATGC,-0.0623
24,TCGCCGAA,-0.0857
25,CTAATCTC,0.175

row,Sequence,binding signal [E-score]
1,ACGGAGTA,0.101
2,ATGGTGCG,-0.167
3,CGTTGTGC,-0.0905
4,GTTGCAGA,-0.102
5,GAGTAAGA,-0.008
6,AGGGAAGA,-0.154
7,CCAACATA,0.134
8,AGGTATCG,0.478
9,CCCTGGGC,-0.16
10,CCAATACA,0.0364
11,CTGCGCGA,0.0419
12,GCGAACTA,0.0727
13,CTAAGCTC,-0.123
14,CGCTAATA,-0.0101
15,AGAGGAAT,0.0744
16,TAAGATAA,0.0806
17,CGGGGTAA,0.128
18,GAGCCACC,0.041
19,GTGGGCCA,-0.215
20,AATTGCTA,0.0458
21,ACTCGATA,0.303
22,AAGTAACT,-0.298
23,GACTCGAA,-0.108
24,CTTCTCGC,0.136
25,AATAAGTG,-0.0784

row,Sequence,binding signal [E-score]
1,CACCACAA,0.0182
2,AGAGACTA,-0.217
3,CGCACGCG,-0.22
4,AGACTCTG,0.0115
5,AATGGCCT,-0.22
6,GTCAACCA,-0.261
7,CCTAATGC,-0.07
8,GCCTCGGA,-0.0286
9,TGTCCACA,-0.033
10,CCTATGAA,-0.059
11,GTGGACTA,0.0435
12,CAGATTGC,-0.11
13,ACCTGAAC,-0.162
14,GTCAGAGA,-0.0691
15,ACCGCCAA,-0.0246
16,TGATGACA,-0.0474
17,GATTTAGA,0.0717
18,TCCTACAA,0.0631
19,CTACTAAC,0.0528
20,CTACAATA,0.241
21,TAAAGGGA,-0.0716
22,GCAACTAC,-0.183
23,TTACCGAA,-0.0115
24,ACGCTAGA,-0.0662
25,GCACGTGC,-0.183

row,Sequence,binding signal [E-score]
1,CGGTCTGC,-0.105
2,CATTGGTA,-0.0532
3,GACCCGTA,0.0888
4,ATTGTGCA,-0.0103
5,CATTAGCC,-0.135
6,CCTTCACG,0.0243
7,CCAATCAG,-0.145
8,AGGCCGAA,-0.177
9,GCGTTAAC,-0.0738
10,CGAGGCCG,-0.183
11,ATGGATTC,0.0729
12,GGCTTACC,-0.0836
13,ACCTTCAC,0.101
14,ATATATTC,0.279
15,CCTCGTCG,-0.0556
16,CATTTGAC,-0.212
17,GCAGCGCA,-0.141
18,ATTATCGC,0.148
19,CGCACTCC,-0.219
20,ACGGCGGA,-0.069
21,CGGAGCCA,-0.0825
22,GACAGGCA,-0.176
23,CAGTATTA,0.295
24,ATAATTCG,0.0379
25,CAGTCAGC,-0.152

row,Sequence,binding signal [E-score]
1,CCCGCAAG,-0.167
2,ATAACCGG,0.0341
3,ACGTATTG,0.211
4,TATGCCAA,0.166
5,ATCATTAA,0.228
6,CCGCTATC,0.304
7,CCTATTGC,0.0959
8,CCCCGCAG,-0.0265
9,AACCAGTT,-0.00702
10,CAGGTAGA,0.15
11,GGTTTCAA,0.0417
12,CCCTCGAC,0.182
13,AATAACTC,-0.0333
14,ACTCGTAC,-0.0432
15,CAGGTGTC,0.394
16,CTCGCGTA,0.0411
17,ACCAGATA,0.339
18,ATGGTACC,-0.129
19,CGAGGTTC,0.00267
20,ATAGAGGC,-0.17
21,ATTGTACA,-0.135
22,AGTGGTTA,0.148
23,GGCCATAC,0.0313
24,AGATCTCG,0.214
25,CGATAACA,0.16

row,Sequence,binding signal [E-score]
1,AGAGGCGG,0.0228
2,GCGAATTA,-0.196
3,AGCTTAAT,-0.00192
4,CTTATATA,0.15
5,AGCATTAT,-0.0561
6,ACACGCCG,0.028
7,CACGTGTA,-0.0559
8,CTAAGCCA,-0.209
9,CGTTTGAC,0.0285
10,AATACCTG,0.178
11,CGTTATCA,-0.0312
12,GGTTTATA,0.141
13,GCCCGTCC,-0.149
14,CGGACATA,0.127
15,ACGATCAT,0.186
16,TAGAGCCA,-0.186
17,AAGAATAA,-0.149
18,ATGGACTA,-0.12
19,AATACATT,-0.0234
20,TACTTTGA,0.00638
21,AGTAAGGC,-0.137
22,CCATAGAC,-0.0293
23,CCGTGGCG,-0.229
24,GCCCACAA,-0.122
25,GACGATAC,0.453

row,Sequence,binding signal [E-score]
1,CTTAACGA,-0.0417
2,ATGATTCG,-0.0919
3,GGCATCGA,-0.00137
4,TCATCACA,-0.00938
5,AGTTAGTA,-0.0927
6,GTCTGCGA,-0.0682
7,ACTACTTG,0.082
8,CCTTGAAC,-0.154
9,GGAGCTGA,-0.125
10,AGCAAACC,-0.0737
11,CAGTGTCG,0.0157
12,ATTGAGAC,0.212
13,GCGGGTCC,-0.0542
14,AGTTTTTC,-0.226
15,CTTATCTA,0.0552
16,GACTATCC,0.297
17,CGGGGGCC,-0.141
18,ACGTGTTC,-0.128
19,CTTTCATC,-0.146
20,ACAGGGTC,0.124
21,GCGGCTGA,-0.068
22,ATAGGGGG,0.223
23,GGGGTGAC,-0.23
24,ATAGCACC,0.127
25,AACAACGT,-0.216

row,Sequence,binding signal [E-score]
1,CTGATGGA,0.0162
2,CGCGTGAA,0.0307
3,ACCCATCT,0.204
4,TCACGTGA,0.0665
5,ATCGGTAC,0.162
6,CCCCCGAC,0.107
7,GCGCTGCC,-0.227
8,CTTTACCA,-0.162
9,ACTTATAT,0.144
10,TAACAGGA,-0.0464
11,AACTACTC,0.0396
12,ATCGCCAT,0.186
13,AATCTACA,0.0915
14,ATATGCCG,0.211
15,AGGTGCAC,0.0154
16,CTGCTGAA,-0.264
17,GTAGGCAA,0.0776
18,GTAGCTAA,-0.0447
19,ACGCTGAT,0.183
20,AAACTACG,-0.0962
21,CCCACTCG,-0.154
22,AGCACTCG,-0.0927
23,ACCAAACA,0.0783
24,GGTAGGGA,0.0948
25,AGGCGACC,-0.155

row,Sequence,binding signal [E-score]
1,GTACCGCA,-0.0232
2,GGCACGAA,-0.193
3,AGTACCAC,-0.0344
4,CACCAATC,0.0887
5,AAAACCCG,-0.124
6,GATATCAA,0.453
7,GAGAAGAA,-0.188
8,AGCTGCAT,0.00651
9,AGTCGCGG,0.0149
10,AGGGAGAA,-0.039
11,CGAAATAC,0.157
12,ACTCGCTG,-0.06
13,CATGACCA,-0.0852
14,AATAGCTG,-0.168
15,GGACTATA,0.0929
16,GAACCCCA,0.0943
17,ATAAGCGA,0.0691
18,AGCCTCAC,-0.148
19,GGTAATCA,-0.152
20,CAGGGTAC,-0.0175
21,ACGGGACC,-0.3
22,AAAGCTCA,-0.24
23,AGTACATA,0.066
24,ACGCATAA,-0.0512
25,AACGCGCT,-0.191

row,Sequence,binding signal [E-score]
1,CCGGGCTA,0.0313
2,AATTCTTA,-0.249
3,TGAAGTAA,-0.15
4,CTGGTGCC,-0.243
5,CGAGCAAC,-0.0911
6,GCCGTGTA,0.102
7,ACCATAGA,0.197
8,ATAGAGCC,-0.186
9,GGATCTTA,0.235
10,AAAATGCG,-0.291
11,CCTTGCGC,-0.172
12,CCTGACAG,0.0246
13,ACATAAGG,-0.251
14,TGTCGACA,-0.0857
15,CAACGTGG,-0.053
16,GCACACGC,-0.201
17,AACAGAGG,-0.158
18,CTCAACCA,-0.086
19,TAATTCAA,-0.0989
20,CGGAGCCG,-0.0525
21,GAGCACCA,-0.104
22,AAACCTAG,-0.014
23,ACACGCGC,0.0628
24,AACTATGG,-0.0672
25,ACCCTACC,0.0415

row,Sequence,binding signal [E-score]
1,ACTTACTA,-0.131
2,AGCTGGGA,0.0439
3,CATACTTA,-0.0338
4,AATGATTA,0.0353
5,CCAGTCCC,-0.212
6,CGCGTGAC,-0.0266
7,ATCTACGG,0.092
8,CGAGCGAC,-0.182
9,CTTCTATC,0.0246
10,GCTTTCAA,-0.26
11,CTAACCTA,-0.164
12,ATCCGGCA,0.314
13,TATACAAA,0.102
14,CATTTAGG,-0.316
15,AACGCCCA,-0.11
16,AATCCATC,0.259
17,CTCGACAG,-0.112
18,AAGCACAA,-0.161
19,CCAACGCG,-0.0913
20,AGGTGACG,-0.0351
21,CAGACCTC,-0.153
22,AGGATAAC,0.211
23,GCTATTCC,-0.0683
24,CATACTAG,0.139
25,GCGTTCGA,-0.206

row,Sequence,binding signal [E-score]
1,AGTCCCCG,-0.0149
2,ACCACTTG,-0.0149
3,CGTTTCGC,-0.225
4,CCGTTACC,-0.0233
5,AAATCGTG,-0.0955
6,ACAAGATA,0.261
7,CCGATCGA,0.264
8,GTGATCGA,0.159
9,ACCCTAAC,0.107
10,ATGACCCA,0.12
11,GACCGACC,-0.0578
12,AAAAGATC,0.142
13,ATTACGTC,-0.0934
14,ATGGCCGA,-0.0551
15,AACCTGCC,-0.161
16,AGGCAATA,0.0823
17,TGTACGAA,-0.0746
18,CGTTTTAC,-0.0146
19,GGGCTCCA,-0.152
